Reference: PubChem BioAssay AID602310 (National Center for Advancing Translational Sciences (NCATS), 2012)
Where “and” joins values, the source holds several entries; their conditions need not be identical. Equal entries are not always repeated. Screen size: about 410,000 compounds; about 310 (0.076%) were called active. Not shown: some 2% with an inconclusive outcome. Calls follow the shape of the dose curve; as a rule, active = well fitted curve in the direction sought with a large enough effect; inconclusive = small, poorly fitted or top-dose-only effect; inactive = flat fitted curve, though single readings scatter. The list shows a part of the results, in another mix than the full data.

What follows are molecules tested against DNA dC->dU-editing enzyme APOBEC-3G (Homo sapiens) (UniProt Q9HC16) (assay: qHTS for Inhibitors of Vif-A3G Interactions: qHTS). Details: HeLa A3G-eYFP + Vif (tagged APOBEC3G with the HIV-1 protein that degrades it), YFP fluorescence, overnight; at 46.1 µM (top of the series).
Text: The recent discovery and characterization of host restriction factors, which provide a potent defense to invading retroviruses, has provided new targets for antiviral drug development. APOBEC3G (A3G) and APOBEC3F (A3F) are potent cytidine deaminases that block HIV-1 replication; HIV-1 expresses the Vif protein, which counteracts A3G and A3F by binding to them and inducing their proteasomal degradation. The Vif-A3G and Vif-A3F interactions provide two potential targets for development of small molecules which can interfere with the ability of Vif to degrade A3G or A3F. […] To identify inhibitors that can interfere with Vif mediated degradation of A3G and A3F, we have developed Hela cell lines that stably express A3G or A3F tagged with eYFP at the C-terminal end (A3G-eYFP or A3F-eYFP, respectively) and Vif. In the absence of an inhibitor, Vif induces degradation of A3G-eYFP and A3F-eYFP, and the cells are not fluorescent. In the presence of an inhibitor, it is expected that Vif will be unable to degrade A3G-eYFP and/or A3F-eYFP, resulting in an increase in yellow fluorescence. In this assays Vif A3G was screened against the Molecular Library Small Molecule Repository (MLSMR). NIH Chemical Genomics Center [NCGC] NIH Molecular Libraries Probe Centers Network [MLPCN] MLPCN Grant: MH093245 Assay Submitter (PI): Vinay Pathak, National Cancer Institute
5 uL of 700 cells/well of A3G-YFP cells are dispensed into black, clear bottom plates. The plates are incubated overnight at 37 deg C. 23 nL of compounds are added by pintool. The plates are incubated overnight at 37 deg C and then read on the TTP Acumen (Ex 488/ Em 500-530).
% is scaled to controls: 0 for no effect and ±100 for the full control effect.
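Also: hits raise eYFP signal because A3G escapes Vif-driven loss; nearly all actives have a fitted effect of over 60% in size.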

Chain of UniProt Q9HC16 (Q9HC16 whole entry, looked up): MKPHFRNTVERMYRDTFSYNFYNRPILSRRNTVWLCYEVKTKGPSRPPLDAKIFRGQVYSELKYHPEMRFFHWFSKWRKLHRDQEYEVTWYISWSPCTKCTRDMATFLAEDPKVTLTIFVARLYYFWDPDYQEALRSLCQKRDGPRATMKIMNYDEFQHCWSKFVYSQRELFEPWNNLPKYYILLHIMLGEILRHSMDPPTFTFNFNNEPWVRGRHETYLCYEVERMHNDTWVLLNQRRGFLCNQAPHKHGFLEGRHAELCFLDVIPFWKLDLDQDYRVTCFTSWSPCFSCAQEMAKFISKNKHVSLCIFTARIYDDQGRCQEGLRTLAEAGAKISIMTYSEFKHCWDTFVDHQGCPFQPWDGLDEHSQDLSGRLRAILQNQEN

| Structure (SMILES) | activity, negative = active |
| --- | --- |
| O=C1NC(=O)N(c2ccc3c(c2)OCO3)C(=O)/C1=C\c1ccc(N2CCCCC2)o1 | inactive: -14.8% |
| O=C1NC(=O)N(Cc2ccccc2)C(=O)/C1=C/N1CCCc2ccccc21 | inactive: -6.41% |
| NC(N)=Nc1ccc2[nH]c3c(c2c1)C[C@@]1(O)[C@H]2Cc4ccc(O)c5c4[C@@]1(CCN2CC1CC1)[C@H]3O5 | inactive: -29.7% |
| Cc1cc(/C=C2/C(=O)NC(=O)N(c3ccc(Br)cc3)C2=O)c(C)n1C | inactive: -9.58% |
| CCCCCCCCCCCCCCCC[n+]1ccccc1 | inactive: -14.3% and inactive: -20.7% |
| NC(N)=Nc1ccc2[nH]c3c(c2c1)C[C@@]1(O)[C@H]2Cc4ccc(O)c5c4[C@@]1(CCN2CC1CC1)C3O5 (stereo partly specified) | inactive: -0.804% |
| O=C1NC(=O)N(Cc2ccccc2)C(=O)/C1=C\C=C\c1ccco1 | inactive: -1.61% |
| CN(C)[C@@H]1C(=O)C(C(N)=O)=C(O)[C@@]2(O)C(=O)C3=C(O)c4c(O)cccc4[C@@](C)(O)C3[C@H](O)C12 (stereo partly specified) | inactive: 3.89% and inactive: -7.65% |
| CN(C)C1C(=O)C(C(N)=O)=C(O)C2(O)C(=O)C3=C(O)c4c(O)cccc4C(C)(O)C3C(O)C12 (stereo unspecified) | inactive: -6.31% |
| COc1ccc(CNS(=O)(=O)c2cc3c(cc2C)N(C)CCO3)cc1 | inactive: -8.47% |
| C=C(C)[C@@H]1CC[C@]2(C(=O)O)CC[C@]3(C)[C@H](CC[C@@H]4[C@@]5(C)CC[C@H](O)C(C)(C)[C@@H]5CC[C@]43C)[C@@H]12 | inactive: 2.87% |
| COc1cc([C@@H]2c3cc4c(cc3[C@H](OC(C)=O)[C@H]3COC(=O)[C@H]23)OCO4)cc(OC)c1OC | inactive: -47.6% |
| COc1cccc(OC)c1-c1nn2c(-c3n[nH]c4c3CCC4)nnc2s1 | inactive: -19.9% |
| CC(=O)OC(C)(C)/C=C/C(=O)[C@](C)(O)[C@H]1[C@H](O)C[C@@]2(C)[C@@H]3CC=C4[C@H](C[C@H](O)C(=O)C4(C)C)[C@]3(C)C(=O)C[C@]12C | inactive: -18.8% |
| O=C1C=C2C=C[C@H]3C[C@]2(O1)[C@@H]1CCCCN13 | inactive: -17.5% |
| CC(=O)OC(C)(C)/C=C/C(=O)C(C)(O)C1C(O)CC2(C)C3CC=C4C(CC(O)C(=O)C4(C)C)C3(C)C(=O)CC12C (stereo unspecified) | inactive: -22.9% |
